# Experimental data as given in patent publication US20230028110A1 (ADAPTATE BIOTHERAPEUTICS, published 2023).
# T1: TIGIT on TIGIT+ NFAT Jurkat cells (human)
# T1 sequence (Q495A1 whole entry, looked up): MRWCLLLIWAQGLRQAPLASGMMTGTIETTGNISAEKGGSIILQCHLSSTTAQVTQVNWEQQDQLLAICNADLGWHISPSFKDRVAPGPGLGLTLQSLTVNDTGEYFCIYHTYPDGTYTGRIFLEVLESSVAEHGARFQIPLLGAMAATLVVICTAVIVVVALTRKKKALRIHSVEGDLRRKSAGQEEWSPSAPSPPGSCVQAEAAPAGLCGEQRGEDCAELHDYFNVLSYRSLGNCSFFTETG
# T2: Recombinant human TIGIT (human, UniProt Q495A1 22-141)
# T2 construct: also called T cell immunoreceptor with Ig and ITIM domains
# T2 sequence (looked up): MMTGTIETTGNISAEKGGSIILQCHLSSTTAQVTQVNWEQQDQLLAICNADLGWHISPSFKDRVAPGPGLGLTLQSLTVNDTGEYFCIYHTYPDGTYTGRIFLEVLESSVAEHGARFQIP
# B1: Anti-Vδ1xAnti-TIGIT (ADT1-4-2xtiragolumab) bispecific antibody (bispecific antibody, human IgG1, kappa)
# light: DIVMTQSPDSLAVSLGERATINCKSSQTVLYSSNNKKYLAWYQQKPGQPPNLLIYWASTRESGVPDRFSGSGSGTDFTLTISSLQAEDVAVYYCQQYYSTPFTFGPGTKVEIKRTVAAPSVFIFPPSDEQLKSGTASVVCLLNNFYPREAKVQWKVDNALQSGNSQESVTEQDSKDSTYSLSSTLTLSKADYEKHKVYACEVTHQGLSSPVTKSFNRGEC
# heavy: EVQLQQSGPGLVKPSQTLSLTCAISGDSVSSNSAAWNWIRQSPSRGLEWLGKTYYRFKWYSDYAVSVKGRITINPDTSKNQFSLQLNSVTPEDTAVFYCTRESTTYDLLAGPFDYWGQGTLVTVSSASTKGPSVFPLAPSSKSTSGGTAALGCLVKDYFPEPVTVSWNSGALTSGVHTFPAVLQSSGLYSLSSVVTVPSSSLGTQTYICNVNHKPSNTKVDKKV[letters of human IgG1 Fc with L235A G237A (EU numbers) omitted]GGGGGSGGGGSGGGGSEVQLQQSGPGLVKPSQTLSLTCAISGDSVSSKSAAWNWIRQSPSRGLEWLGRTYYRSKWSTDYAASVKSRITINPDTSKNQLSLQLNSVTPEDTAVYYCARTWVGYVDRWGQGTLVTVSSGGGGSGGGGSGGGGSDIQMTQSPPALSASVGDRVTITCRASQDINDWLAWYQHKPGKAPKLLIYDASSLESGVPLRFSGSGSGTEFTLTISSLQPDDFATYYCQQKYSAPQVTFGQGTRLEIK
# notes: also called Vδ1-TIGIT bispecific antibody
# How the values were obtained:
# [1] = molecular target: T1, TIGIT on TIGIT+ NFAT Jurkat cells; experiment: cell-based or functional assay
# [2] = molecular target: T3, L1 (DV1-GV4), soluble human Vδ1/Vγ4 γδ TCR heterodimer in leucine zipper format (human); experiment: SPR (Reichert 4SPR), antibody on Protein A chip, antigen flown over
# T3 construct: Biotinylated in the DELFIA ranking; also called Antigen L1 (TRDV1/TRGV4); human DV1-GV4; not shown: gamma chain: Vγ4 (TRGV4) domain on a TCR constant region, leucine zipper, histidine tag
# [3] = molecular target: T2, Recombinant human TIGIT; experiment: as above
binder,measurement,setting,value
B1,"EC50 (read off the curve): TIGIT/CD155 Blockade Reporter Assay, luminescence RLU",[1],~6 nM
same,Kd,[2],1.9 nM
same,Kd,[3],0.3 nM
